Experimental data reported in ChEMBL document CHEMBL4888484, “Replenishing the malaria drug discovery pipeline: Screening and hit evaluation of the MMV Hit Generation Library 1 (HGL1) against asexual blood stage Plasmodium falciparum ,using a nano luciferase reporter read-out” (2022).
Screen size: about 150,000 compounds; about 540 (0.36%) showed an effect of 50% or more. Some of the results follow.

system: Plasmodium falciparum; assay: Primary screen in NF54 nanoGlo assay, in single point, at 2uM, 72h; a lower Z score goes with more inhibition; format: functional, Erythrocyte; conditions: timepoint 72 hour

Structure (SMILES)	% Inhibition [%]	Z score
Cc1nc(C(=O)NCc2ccncc2)c(C)n1C1CCN(S(C)(=O)=O)CC1	-9	1.53
O=C(C[C@H]1C(=O)NCCN1C1Cc2ccccc2C1)NCCN1CCOC1=O	-16	1.43
Cn1nc(C(=O)N2CCOCC2)c2ccccc2c1=O	-12	1.56
FC(F)(F)c1cc2c(N3CCC(c4cn[nH]c4)CC3)nccn2n1	-8	1
CCn1nc(C)c(CNC(=O)c2cc(C)nc(C(F)(F)F)n2)n1	13	-1.86
C[C@@H](CC1CCCC1)C(=O)N1CCC2(CCO2)CC1	-6	0.87
O=C(NCCC1CCCO1)NC1CC2CCC1C2 (configuration not stated)	4	-0.52
CN(C)S(=O)(=O)c1ccc2c(c1)CCCN2	-16	2.11
Cc1ccc(OCC(=O)Nc2nccnc2C2CC2)cc1	26	-2.92
CNS(=O)(=O)c1ccc(-c2nccn2CCS(C)(=O)=O)cc1	-9	1.4
c1cnc(NCCNc2ncccn2)nc1	7	-1.25
CCc1onc(C)c1NC(=O)Nc1cccc(N(C)C)c1C	-7	1.03
Cc1nsc(N2CC(O)C(O)C2)n1 (configuration not stated)	-9	1.02
CCn1nc(C)cc1C(=O)Oc1cccc(-n2cccn2)c1	-6	1
COCCN(CC1CC1)C(=O)c1cccn(C)c1=O	0	0.06
CCN(CC(=O)NCc1cccs1)C(=O)c1sc(NC(=O)C(C)(C)C)cc1C	-1	0.11
CN(Cc1csc(-c2ccccc2)n1)C(=O)c1cccnn1	3	-0.52
CC1(C)C[C@@H](c2ccccc2)N(C(=O)c2cn(C3CCOCC3)nn2)C1	2	-0.26
CN1CCN(C)CC(C(=O)NCCOC2CCCCCC2)C1	-5	0.94
CCCn1nc(C)cc1CN(CC)C(=O)c1nn(C)c2c1COCC2	-5	0.59
c1cnn(-c2ccc(OCCO[C@@H]3CCCCO3)cc2)c1	-15	2.03
Cc1nc(-c2ncc(C(=O)N3Cc4ccccc4C3)c(O)n2)cs1	-11	1.37

Structure (SMILES)	% Inhibition [%]	Z score
CC(C)CC(=O)Nc1nnc(CC(C)(C)C)s1	-14	2.71
O=C(CCc1ccc(Br)cc1)NCC1(O)CCOCC1	-6	0.95
O=C1CCC(=O)N1CCCn1nc(C(F)(F)F)cc1C1CC1	19	-2.43
COc1ccc(Cl)cc1Cn1cnc2oc(C)c(C(=O)O)c2c1=O	-15	3.14
COC(=O)[C@H](CC(C)C)NS(=O)(=O)NCc1ccccc1	-10	1.43
C=CCNC(=O)c1ccc(Oc2nccnc2N2CCCCC2)cc1	-10	1.11
CCN1CCC(CC(=O)N[C@H](Cc2cc(F)c(F)c(F)c2)C(=O)O)CC1	-9	1.45
O=S(=O)(Cc1ccon1)N(C[C@H]1CCOC1)C1CC1	-10	2.05
CN(C)[C@@H](C(=O)N1CCC(O)(CO)CC1)c1ccc2c(c1)OCO2	-7	0.65
COc1ccc(-c2c(C)noc2NC(C)=O)cc1S(=O)(=O)NC1CCCC1	-14	2.06
CCCCc1ccc(-n2nc3cc(Cl)c(NC(=O)C(c4ccccc4)c4ccccc4)cc3n2)cc1	-5	0.79
Cc1ccc(N2C(=O)N[C@H]3C[C@]2(C)Oc2ccc(Cl)cc23)c(C)c1	-5	0.84
COc1ncccc1C(=O)NCc1ccc(N2CCCC2)cc1	-9	0.78
CC(C)(C)n1ncc2c(=O)[nH]c(NCC=Cc3ccccc3)nc21	3	-0.5
Cc1cccc(Cn2nc(CC(N)=O)nc2CCn2cncn2)c1	7	-0.67
O=C(CCn1nc2ccccn2c1=O)Nc1cnccc1Nc1ccc(F)cc1	-25	4.76
CN1CCC[C@H](C(=O)NCCc2ccnn2C)C1	-8	1.09
O=C(OCCOc1cccnc1)c1ccn2cncc2c1	-12	1.39
NC(=O)c1ccc(CNC(=O)C2CC(O)(C3CCCCC3)C2)o1 (configuration not stated)	-10	1.27
COc1ccc(Nc2nc(N3CCOCC3)c3cnn(-c4ccccc4)c3n2)cc1	16	-2.02
CCOCCCNC(=O)Nc1cccc(Br)c1	23	-2.92
COCCCC(=O)NC[C@H](O)c1c(Cl)cccc1Cl	6	-0.77

Structure (SMILES)	% Inhibition [%]	Z score
CCC[C@H](C)N1CC2(CCN(Cc3cnc(C(C)C)nc3)CC2)OC1=O	-9	1.05
CC(O)CCCNC(CC1CCN(C(=O)OC(C)(C)C)CC1)c1cccnc1 (configuration not stated)	-1	0.15
Cc1ccc(C(=O)N2CCCC[C@H]2c2nnc(-c3ccncc3)[nH]2)cn1	-12	2.36
Cc1ccc(NC(=O)CN2CC[C@H](N3CCCCC3)C2)cc1F	-11	2.01
CC(C)CNC(=O)[C@H](C)Nc1cccc(C(N)=O)c1	1	-0.1
CCc1nsc(NCc2nnc3ccc(N(C)C)nn23)n1	-4	0.72
CC(=O)N[C@@H]1CC[C@H]2CCOc3ccccc3C(=O)N3CCN(C(C)C)C[C@H]3C(=O)NC[C@H]1O2	-1	0.15
Cc1cc(C)c(CN2[C@H]3CCNC[C@@H]2CC3)c(-n2cccn2)c1	9	-1.3
O=C(Nc1ccc(Oc2ccccc2)cn1)[C@@H]1CCCc2[nH]ncc21	-4	0.43
Cc1ccc(Nc2nn(CN3CCCC3)c(=S)s2)cc1Cl	-16	3.08
O=C(C(=O)N1CCO[C@@H](Cc2cccc3ccccc23)C1)c1ccco1	7	-0.95
O=C1[C@@H]2C[C@@H](O)CN2C2(CN(Cc3ccccn3)C2)C(=O)N1Cc1ccccc1Cl	-3	0.53
O=C(OC1CS(=O)(=O)CC1Nc1ccccc1)c1ccc(Cl)cc1 (configuration not stated)	4	-0.54
CN(Cc1ccccc1)c1nc2c(c(Oc3ccc(F)cc3)n1)CN(C(=O)Nc1cccc(Cl)c1)CC2	0	0.02
CC(C)(C)OC(=O)N[C@@H]1CCCCC[C@H]1NC(=O)c1cnn(C(C)(C)C)c1	-13	1.3
COC(=O)[C@@H](c1cc(F)c(F)c(F)c1)N(C)Cc1nnc(C)n1C	-6	0.8
Cc1ncc(CO)c(CN(C)[C@@H](C)c2ccccn2)c1O	-10	1.02
Cc1cc(C(=O)N2CC[C@@]3(CCCN(CCc4ccccc4)C3)C2)n[nH]1	-13	2.45
C[C@@H]1CN(C(=O)CN(C)Cc2ccc(F)cc2)CC[C@@]1(O)C1CCOCC1	-9	1.65
CCOCCN(C)C(=O)c1cnn(C(C)(C)C)c1	-2	0.15
CCOC1CC1C(=O)N1CCc2ccc(OC)cc2C1 (configuration not stated)	-5	0.83
CC(Cc1cccc(F)c1)C(=O)NCC(C)N(C)C(=O)C(C)Cc1cccc(F)c1 (configuration not stated)	1	-0.18

Structure (SMILES)	% Inhibition [%]	Z score
CCCc1cc(N2CCN[C@H](C(=O)Nc3ccc(F)cc3)C2)nc(C)n1	-11	1.1
CCCN(CC)c1ccc(C(=O)O)cc1	-14	1.95
CCOc1ccc(NC(=O)c2cnc(N3CC=C(c4ccccc4)CC3)nc2N)cc1	35	-3.93
C[C@H]1Cc2ccccc2N1CCNC(=O)Cc1cncnc1	-8	1.33
Cc1ccc(C(=O)Nc2cccc(NC(=O)c3ccc(C)o3)n2)o1	-10	1.32
Cc1occc1C(=O)Nc1cnccc1N1CCCCC1	0	-0.03
CC(C)NC(=O)CCNC(=NC1CC1)NCc1ccccc1	13	-2.08
N/C(c1nonc1N)=[N+](/[O-])C(=O)c1sc2ccccc2c1Cl	20	-2.53
CCCc1ccc(OCCNC(=O)[C@H]2CC23CCNCC3)cc1	2	-0.33
O=C(NCc1ccncc1)NC1CCC2(CCOCC2)CC1	-14	2.57
Cc1ccc(S(=O)(=O)Nc2ccc(C)n(CC(=O)N(C)Cc3ccco3)c2=O)cc1	-9	1.22
Cc1ccc(Br)c(C(=O)N[C@@H](CO)c2cncn2C)n1	-4	0.76
CCc1ncc(CN2CCC3(CC2)C[C@@H](c2ccccc2)C(=O)N(C)C3)cn1	-9	1.2
CCCC[n+]1nn(-c2cccc(OC)c2)c([O-])c1C(=O)Nc1cccc(OC)c1	-5	0.73
O=C1COc2ccccc2N1c1c(-c2ccccc2)c2ccccc2[nH]c1=O	-9	1.01
COc1ccccc1N(CC(F)(F)F)C(=O)c1nc(C)sc1C	-12	1.73
COC1(C(C)NCC(C)(O)c2ccsc2)CCCC1 (configuration not stated)	-5	0.82
CN1CCCN(C(=O)NC(C)(C)C)c2nc3ccccc3nc21	-1	0.18
CC(C)(C)c1cn2c3ccccc3nc2n1CCN1CCCCC1	-11	1.37
Clc1cc2c(cc1CN1CC[C@H]3CC[C@@H](C1)N3)OCO2	-16	1.62
